Values joined by “and” are separate entries in the source; they are usually repeats but may differ in a detail not shown here. Equal values may be shown once. Where a name gives a salt, the structure may show the parent alone. The list shows a part of the results. Many values rest on one well or one pass, so single values are uncertain.
The compounds below were run on HeLa VPS33A reporter cells (assay: relative cell viability (CellMask signal) vs DMSO (fraction of DMSO); HeLa model of a glycosaminoglycan (GAG) storage disease; KI is knock-in and KO knock-out; SDC1 is syndecan 1; higher = less cytotoxic). Conditions: 50 µM; 24 h.
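Further: primary screen of an FDA-approved drug library in HeLa reporter cells in 96-well format, CellMask signal normalized to DMSO-treated wells set as 1, under 0.5 deemed highly cytotoxic.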

| SMILES | relative cell viability |
| --- | --- |
| COCC[n+]1c2c(n(Cc3cnccn3)c1C)C(=O)c1ccccc1C2=O | 0.00515 |
| COc1ccc(C[C@H](N)C(=O)N[C@H]2[C@@H](O)[C@H](n3cnc4c(N(C)C)ncnc43)O[C@@H]2CO)cc1 [Puromycin dihydrochloride] | 0.00643 |
| O=C(c1ccc(OCCN2CCCCC2)cc1)c1c(-c2ccc(O)cc2)sc2cc(O)ccc12 [Raloxifene HCl] | 0.0673 |
| COC(=O)C1=C(C)NC(C)=C(C(=O)OCC(C)C)C1c1ccccc1[N+](=O)[O-] (centres undefined) [Nisoldipine] | 0.186 |
| C=C(CC)C(=O)c1ccc(OCC(=O)O)c(Cl)c1Cl [Ethacrynic Acid] | 0.01 |
| CCCCc1oc2ccc(NS(C)(=O)=O)cc2c1C(=O)c1ccc(OCCCN(CCCC)CCCC)cc1 [Dronedarone HCl] | 0.00431 |
| CCCCc1oc2ccccc2c1C(=O)c1cc(I)c(OCCN(CC)CC)c(I)c1 [Amiodarone HCl] | 0.0389 |
| CC(C)N1CCN(c2ccc(OCC3COC(Cn4cncn4)(c4ccc(Cl)cc4Cl)O3)cc2)CC1 (centres undefined) [Terconazole] | 0.00898 |
| CC(=O)O[C@@]12CO[C@@H]1C[C@H](O)[C@@]1(C)C(=O)[C@H](O)C3=C(C)[C@@H](OC(=O)[C@H](O)[C@@H](NC(=O)OC(C)(C)C)c4ccccc4)C[C@@](O)([C@@H](OC(=O)c4ccccc4)[C@H]21)C3(C)C [Docetaxel Trihydrate] | 0.0673 |
| CCN(CC)CCOC(=O)C1(C2CCCCC2)CCCCC1 [Dicyclomine HCl] | 0.00852 |
| CCC[C@H](NC(=O)[C@@H]1[C@H]2CCC[C@H]2CN1C(=O)[C@@H](NC(=O)[C@@H](NC(=O)c1cnccn1)C1CCCCC1)C(C)(C)C)C(=O)C(=O)NC1CC1 [Telaprevir (VX-950)] | 0.247 |
| CC[C@H](CO)Nc1nc(NCc2ccccc2)c2ncn(C(C)C)c2n1 [Roscovitine (Seliciclib,CYC202)] | 0.0173 |
| COc1cccc2c1C(=O)c1c(O)c3c(c(O)c1C2=O)C[C@@](O)(C(=O)CO)C[C@@H]3O[C@H]1C[C@H](N)[C@H](O[C@@H]2CCCCO2)[C@H](C)O1 [Pirarubicin] | 0.0208 |
| CC(=O)[C@]1(O)Cc2c(O)c3c(c(O)c2[C@@H](O[C@H]2C[C@H](N)[C@H](O)[C@H](C)O2)C1)C(=O)c1ccccc1C3=O [Idarubicin HCl] | 0.00462 |
| COc1cc(OC)c(/C=C/S(=O)(=O)Cc2ccc(OC)c(NCC(=O)O)c2)c(OC)c1 | 0.289 |
| Cc1ccc(NC(=O)c2ccc(CN3CCN(C)CC3)cc2)cc1Nc1nccc(-c2cccnc2)n1 [Imatinib (STI571)] | 0.0338 |
| Cc1c(-c2ccccc2)oc2c(C(=O)OCCN3CCCCC3)cccc2c1=O [Flavoxate hydrochloride] | 0.068 |
| CN1CCCC(n2nc(Cc3ccc(Cl)cc3)c3ccccc3c2=O)CC1 (centres undefined) [Azelastine HCl] | 0.00903 |
| CCc1cc2c(cc1CC)CC(NC[C@H](O)c1ccc(O)c3[nH]c(=O)ccc13)C2 [Indacaterol] | 0.00371 |
| Cc1c(C(=O)NN2CCCCC2)nn(-c2ccc(Cl)cc2Cl)c1-c1ccc(Cl)cc1 [Rimonabant] | 0.48 |

| SMILES | relative cell viability |
| --- | --- |
| CC(=O)c1c(C)c2cnc(Nc3ccc(N4CCNCC4)cn3)nc2n(C2CCCC2)c1=O | 0.0044 and 0.00355 |
| CC[C@]1(O)C[C@@H]2CN(CCc3c([nH]c4ccccc34)[C@@](C(=O)OC)(c3cc4c(cc3OC)N(C)[C@H]3[C@@](O)(C(=O)OC)[C@H](OC(C)=O)[C@]5(CC)C=CCN6CC[C@]43[C@@H]65)C2)C1 [Vinblastine sulfate] | 0.0065 |
| CCN(CC)C(=S)SSC(=S)N(CC)CC [Disulfiram] | 0.0464 |
| CC1=C(/C=C/C(C)=C/C=C/C(C)=C/C=C/C=C(C)/C=C/C=C(C)/C=C/C2=C(C)CCCC2(C)C)C(C)(C)CCC1 [Betacarotene] | 0.00852 |
| CN(C)C/C=C/C(=O)Nc1cc2c(Nc3ccc(F)c(Cl)c3)ncnc2cc1O[C@H]1CCOC1 [Afatinib (BIBW2992)] | 0.006 |
| Clc1ccc(COC(Cn2ccnc2)c2ccc(Cl)cc2Cl)c(Cl)c1 (centres undefined) [Miconazole Nitrate] | 0.00457 |
| Cc1[nH]c2ccccc2c1CCNCc1ccc(/C=C/C(=O)NO)cc1 [Panobinostat (LBH589)] | 0.00749 |
| CCOC(=O)C1=C(COCCN)NC(C)=C(C(=O)OC)C1c1ccccc1Cl (centres undefined) [Amlodipine] | 0.00488 |
| COc1cc(/C=C/C(=O)CC(=O)/C=C/c2ccc(O)c(OC)c2)ccc1O [Curcumin] | 0.0044 |
| Cc1ccc(C(=O)N(CCCN)[C@@H](c2nc3cc(Cl)ccc3c(=O)n2Cc2ccccc2)C(C)C)cc1 | 0.00382 |
| COc1cccc2c1C(=O)c1c(O)c3c(c(O)c1C2=O)C[C@@](O)(C(C)=O)C[C@@H]3O[C@H]1C[C@H](N)[C@H](O)[C@H](C)O1 [Daunorubicin HCl] | 0.00618 |
| CCN(CC)CCOc1ccc(C(=C(Cl)c2ccccc2)c2ccccc2)cc1 [Clomiphene citrate] | 0.0328 |
| C/C=C1\NC(=O)[C@H]2CSSCC/C=C/[C@H](CC(=O)N[C@H](C(C)C)C(=O)N2)OC(=O)[C@H](C(C)C)NC1=O [Romidepsin (FK228, depsipeptide)] | 0.00881 |
| CN1CCN(C(c2ccccc2)c2ccc(Cl)cc2)CC1 (centres undefined) [Chlorcyclizine (hydrochloride)] | 0.0559 |
| COc1ccc(CC2c3cc(OC)c(OC)cc3CC[N+]2(C)CCC(=O)OCCCCCOC(=O)CC[N+]2(C)CCc3cc(OC)c(OC)cc3C2Cc2ccc(OC)c(OC)c2)cc1OC (centres undefined) [Atracurium Besylate] | 0.00591 |
| CCc1cnn2c(NCc3ccc[n+]([O-])c3)cc(N3CCCC[C@H]3CCO)nc12 | 0.0171 |
| Clc1ccc2c(c1)CCc1cccnc1C2=C1CCNCC1 [Desloratadine] | 0.00875 |
| CCCCCCCCCCCCCCCCCCOP(=O)([O-])OC1CC[N+](C)(C)CC1 [Perifosine] | 0.00554 |
| Clc1ccc(C(Cn2ccnc2)OCc2csc3c(Cl)cccc23)c(Cl)c1 (centres undefined) [Sertaconazole nitrate] | 0.00422 |

Source: the supplement of paper PMC12355420
